From the supplement of paper PMC6206098
± gives the uncertainty stated by the source. Shown are siRNA guide strands that differ only in the seed, positions 2 to 7.

Legend:
M565 = assay: cell viability relative to lipid-only control; higher = less toxic; details: concentration: 10 nM; 96 h; Mus musculus
H460 = assay: as above; details: concentration: 10 nM; 96 h; Homo sapiens
HeyA8 = assay: as above; details: concentration: 10 nM; 96 h; Homo sapiens
3LL = assay: cell viability relative to siNT1 control; HeyA8 human ovarian and H460 human lung cancer; M565 mouse liver and 3LL mouse lung cancer; siNT1 is a non-toxic control siRNA; higher = less toxic; details: concentration: 10 nM; 96 h; Mus musculus
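Throughout, for cell viability relative to lipid-only control: reverse lipid transfection in 384-well plates, in triplicate, of duplexes on a non-toxic 19mer backbone with passenger strand 2′-O-methylated at positions 1 and 2, luminescence viability read-out.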
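Throughout, for cell viability relative to siNT1 control: Luminescence-based viability of cells reverse transfected in 384-well plates with lipid-complexed siRNAs built on a non-toxic 19mer backbone whose passenger strand carries 2′-O-methyl groups at positions 1 and 2, triplicates.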

UUGGAAUACAUGUAAACCAAA
cell viability (M565): 35.2 ± 12%
cell viability (H460): 76.9 ± 2.2%
cell viability (HeyA8): 78.1 ± 1.4%
cell viability (3LL): 78.9 ± 14%

UGAUGAAACAUGUAAACCAAA
cell viability (M565): 55.9 ± 6.8%
cell viability (H460): 56.4 ± 5.9%
cell viability (HeyA8): 76.6 ± 7.8%
cell viability (3LL): 74.4 ± 12%

UUACCGCACAUGUAAACCAAA
cell viability (M565): 18.8 ± 6%
cell viability (H460): 51.5 ± 2.9%
cell viability (HeyA8): 81 ± 3.8%
cell viability (3LL): 61.8 ± 3.9%

UUAUUGAACAUGUAAACCAAA
cell viability (M565): 57.3 ± 13%
cell viability (H460): 69.1 ± 9.3%
cell viability (HeyA8): 71.2 ± 6.2%
cell viability (3LL): 42.7 ± 6.3%

UCCCCAAACAUGUAAACCAAA
cell viability (M565): 50.3 ± 8.4%
cell viability (H460): 87.3 ± 14%
cell viability (HeyA8): 87.1 ± 0.91%
cell viability (3LL): 88.7 ± 24%

UCGAUAGACAUGUAAACCAAA
cell viability (M565): 63.8 ± 7.5%
cell viability (H460): 79.8 ± 16%
cell viability (HeyA8): 90.4 ± 11%
cell viability (3LL): 86.4 ± 17%

UUGAAGUACAUGUAAACCAAA
cell viability (M565): 52.3 ± 10%
cell viability (H460): 42.2 ± 12%
cell viability (HeyA8): 50.7 ± 4.3%
cell viability (3LL): 34 ± 11%

UGCCAAGACAUGUAAACCAAA
cell viability (M565): 29 ± 7.3%
cell viability (H460): 46.3 ± 5.7%
cell viability (HeyA8): 74.5 ± 4.3%
cell viability (3LL): 75.2 ± 8.5%

UUCCACCACAUGUAAACCAAA
cell viability (M565): 22.8 ± 3.6%
cell viability (H460): 22.6 ± 4.3%
cell viability (HeyA8): 49.8 ± 4.4%
cell viability (3LL): 38.4 ± 4.9%

UAUACCUACAUGUAAACCAAA
cell viability (M565): 101 ± 14%
cell viability (H460): 65.2 ± 8.3%
cell viability (HeyA8): 72.6 ± 4.9%
cell viability (3LL): 63.7 ± 15%

UCUGAGCACAUGUAAACCAAA
cell viability (M565): 29.7 ± 11%
cell viability (H460): 47.3 ± 1.4%
cell viability (HeyA8): 70.2 ± 1.9%
cell viability (3LL): 72.9 ± 4.7%

UGCUGCUACAUGUAAACCAAA
cell viability (M565): 4.09 ± 6.2%
cell viability (H460): 41.9 ± 0.99%
cell viability (HeyA8): 7.21 ± 0.59%
cell viability (3LL): 33.5 ± 2.3%

UCCAUCCACAUGUAAACCAAA
cell viability (M565): 9 ± 2.8%
cell viability (H460): 27.3 ± 4.8%
cell viability (HeyA8): 13.6 ± 1.2%
cell viability (3LL): 21 ± 10%

UGGCGACACAUGUAAACCAAA
cell viability (M565): 22.6 ± 1.3%
cell viability (H460): 26.8 ± 3.8%
cell viability (HeyA8): 8.81 ± 1.5%
cell viability (3LL): 23.3 ± 4%

UUUAGGGACAUGUAAACCAAA
cell viability (M565): 82.7 ± 6%
cell viability (H460): 57.2 ± 2.3%
cell viability (HeyA8): 85.2 ± 4%
cell viability (3LL): 89.8 ± 2.1%

UCUUAUCACAUGUAAACCAAA
cell viability (M565): 63.7 ± 16%
cell viability (H460): 66.4 ± 5.4%
cell viability (HeyA8): 76.9 ± 18%
cell viability (3LL): 92.7 ± 18%

UUGUGCCACAUGUAAACCAAA
cell viability (M565): 82.4 ± 7.5%
cell viability (H460): 52.4 ± 5.6%
cell viability (HeyA8): 48.6 ± 4.3%
cell viability (3LL): 35 ± 9.1%

UAGGAGUACAUGUAAACCAAA
cell viability (M565): 14 ± 2.5%
cell viability (H460): 25.7 ± 5.8%
cell viability (HeyA8): 15.2 ± 0.34%
cell viability (3LL): 61.5 ± 11%

UAAAGUAACAUGUAAACCAAA
cell viability (M565): 88.3 ± 19%
cell viability (H460): 80.1 ± 9.4%
cell viability (HeyA8): 97 ± 8.1%
cell viability (3LL): 110 ± 8.1%

UGUGAGGACAUGUAAACCAAA
cell viability (M565): 34.1 ± 8.1%
cell viability (H460): 23.9 ± 1.6%
cell viability (HeyA8): 25.2 ± 2.8%
cell viability (3LL): 30.4 ± 18%

UUCUGCAACAUGUAAACCAAA
cell viability (M565): 57.7 ± 5.4%
cell viability (H460): 52.9 ± 6.8%
cell viability (HeyA8): 87 ± 5.8%
cell viability (3LL): 30.1 ± 7.7%

UACUUAAACAUGUAAACCAAA
cell viability (M565): 81.9 ± 4.2%
cell viability (H460): 70.2 ± 11%
cell viability (HeyA8): 79 ± 4%
cell viability (3LL): 86 ± 6.9%

UGGUUCUACAUGUAAACCAAA
cell viability (M565): 24.6 ± 2.1%
cell viability (H460): 49.5 ± 10%
cell viability (HeyA8): 37.1 ± 3.5%
cell viability (3LL): 53.6 ± 4.8%

UGAUGUAACAUGUAAACCAAA
cell viability (M565): 42.9 ± 3.3%
cell viability (H460): 69.9 ± 8.5%
cell viability (HeyA8): 18.6 ± 1.9%
cell viability (3LL): 89 ± 19%

UAGGUACACAUGUAAACCAAA
cell viability (M565): 14.4 ± 2.5%
cell viability (H460): 60.2 ± 8.1%
cell viability (HeyA8): 48.2 ± 5.2%
cell viability (3LL): 32.2 ± 1%

UCGUCUAACAUGUAAACCAAA
cell viability (M565): 70.9 ± 6.8%
cell viability (H460): 91.5 ± 26%
cell viability (HeyA8): 92.2 ± 7.7%
cell viability (3LL): 96.4 ± 19%

UCCCAUCACAUGUAAACCAAA
cell viability (M565): 20.5 ± 5.7%
cell viability (H460): 45.4 ± 7.4%
cell viability (HeyA8): 62.6 ± 5.5%
cell viability (3LL): 45.5 ± 9.7%

UAUGCCAACAUGUAAACCAAA
cell viability (M565): 67.1 ± 4.7%
cell viability (H460): 83.3 ± 3.4%
cell viability (HeyA8): 87.7 ± 3.4%
cell viability (3LL): 84.2 ± 9%

UUAUUGCACAUGUAAACCAAA
cell viability (M565): 42 ± 5.1%
cell viability (H460): 36.4 ± 5.1%
cell viability (HeyA8): 30 ± 3.9%
cell viability (3LL): 39.9 ± 3.9%

UAAACACACAUGUAAACCAAA
cell viability (M565): 94.4 ± 23%
cell viability (H460): 94.2 ± 31%
cell viability (HeyA8): 107 ± 6.5%
cell viability (3LL): 90.6 ± 15%

UUGAAUCACAUGUAAACCAAA
cell viability (M565): 27.9 ± 4.9%
cell viability (H460): 54.6 ± 8%
cell viability (HeyA8): 55.8 ± 5.3%
cell viability (3LL): 19.7 ± 1.4%

UAUGCUAACAUGUAAACCAAA
cell viability (M565): 90.6 ± 14%
cell viability (H460): 85.9 ± 6.5%
cell viability (HeyA8): 94.4 ± 4.4%
cell viability (3LL): 102 ± 11%

UCACCUAACAUGUAAACCAAA
cell viability (M565): 78.3 ± 6.3%
cell viability (H460): 61.2 ± 8.1%
cell viability (HeyA8): 86.1 ± 6.3%
cell viability (3LL): 95.7 ± 11%

UAUUACCACAUGUAAACCAAA
cell viability (M565): 56.8 ± 7.8%
cell viability (H460): 45.1 ± 1.6%
cell viability (HeyA8): 58.3 ± 5.8%
cell viability (3LL): 58.5 ± 14%

UAACAUGACAUGUAAACCAAA
cell viability (M565): 79.5 ± 12%
cell viability (H460): 62.4 ± 6.9%
cell viability (HeyA8): 94.3 ± 13%
cell viability (3LL): 93.3 ± 12%

UCCGCGUACAUGUAAACCAAA
cell viability (M565): 52.8 ± 6.7%
cell viability (H460): 65.9 ± 7.5%
cell viability (HeyA8): 69 ± 6.2%
cell viability (3LL): 110 ± 22%

UAAAAGUACAUGUAAACCAAA
cell viability (M565): 96.7 ± 12%
cell viability (H460): 59.7 ± 1.5%
cell viability (HeyA8): 78.4 ± 3.5%
cell viability (3LL): 110 ± 13%

UACCACAACAUGUAAACCAAA
cell viability (M565): 29 ± 2.9%
cell viability (H460): 38.6 ± 6.3%
cell viability (HeyA8): 88.2 ± 2.8%
cell viability (3LL): 81.8 ± 5.5%

UCGUGAUACAUGUAAACCAAA
cell viability (M565): 45.8 ± 3.7%
cell viability (H460): 68.1 ± 3.2%
cell viability (HeyA8): 37.5 ± 2%
cell viability (3LL): 74.9 ± 16%

UCUCAUCACAUGUAAACCAAA
cell viability (M565): 48.1 ± 10%
cell viability (H460): 36.1 ± 5.3%
cell viability (HeyA8): 67.3 ± 6.4%
cell viability (3LL): 97.6 ± 12%

UUACUGGACAUGUAAACCAAA
cell viability (M565): 22.5 ± 12%
cell viability (H460): 51 ± 3.2%
cell viability (HeyA8): 49.8 ± 4.7%
cell viability (3LL): 29.3 ± 3%

UAGAGAGACAUGUAAACCAAA
cell viability (M565): 40.9 ± 8.3%
cell viability (H460): 77.2 ± 12%
cell viability (HeyA8): 83.3 ± 7.2%
cell viability (3LL): 67.2 ± 8.8%

UAGUACUACAUGUAAACCAAA
cell viability (M565): 72.4 ± 9%
cell viability (H460): 35.9 ± 5.3%
cell viability (HeyA8): 23.1 ± 1.8%
cell viability (3LL): 15.3 ± 0.38%

UCCGCCAACAUGUAAACCAAA
cell viability (M565): 48.4 ± 15%
cell viability (H460): 66.4 ± 10%
cell viability (HeyA8): 75 ± 8.2%
cell viability (3LL): 103 ± 11%

UAACGCAACAUGUAAACCAAA
cell viability (M565): 73.9 ± 11%
cell viability (H460): 69.2 ± 2.3%
cell viability (HeyA8): 95.7 ± 9.4%
cell viability (3LL): 93.8 ± 13%

UGCUUCGACAUGUAAACCAAA
cell viability (M565): 44.5 ± 1.4%
cell viability (H460): 69.7 ± 6%
cell viability (HeyA8): 36 ± 3.6%
cell viability (3LL): 59.9 ± 12%

UGCCGAGACAUGUAAACCAAA
cell viability (M565): 47.2 ± 3.6%
cell viability (H460): 83.6 ± 7%
cell viability (HeyA8): 84.9 ± 4%
cell viability (3LL): 82.5 ± 9.4%

UAAGAGCACAUGUAAACCAAA
cell viability (M565): 65.4 ± 4.3%
cell viability (H460): 86.7 ± 5.6%
cell viability (HeyA8): 73.4 ± 7.8%
cell viability (3LL): 18.6 ± 2.6%

UUGAACGACAUGUAAACCAAA
cell viability (M565): 59.4 ± 3.4%
cell viability (H460): 75.5 ± 8.9%
cell viability (HeyA8): 97 ± 6.7%
cell viability (3LL): 23.4 ± 6.2%

UAUCCAGACAUGUAAACCAAA
cell viability (M565): 34.7 ± 3.8%
cell viability (H460): 78.2 ± 7.1%
cell viability (HeyA8): 87.4 ± 4.8%
cell viability (3LL): 102 ± 8.4%

UGUCCGUACAUGUAAACCAAA
cell viability (M565): 19.3 ± 2.5%
cell viability (H460): 49.7 ± 9%
cell viability (HeyA8): 88.3 ± 5.5%
cell viability (3LL): 71.1 ± 3.5%

UCUUCAUACAUGUAAACCAAA
cell viability (M565): 82.2 ± 4.5%
cell viability (H460): 59.4 ± 3.2%
cell viability (HeyA8): 80.7 ± 8.9%
cell viability (3LL): 94 ± 10%

UCCUAUUACAUGUAAACCAAA
cell viability (M565): 82.3 ± 9%
cell viability (H460): 83.5 ± 7.8%
cell viability (HeyA8): 80.7 ± 5.5%
cell viability (3LL): 79.7 ± 21%

UUGACCCACAUGUAAACCAAA
cell viability (M565): 18.8 ± 1.8%
cell viability (H460): 44.7 ± 3.7%
cell viability (HeyA8): 59.1 ± 7.2%
cell viability (3LL): 15.9 ± 1.3%

UACCCUGACAUGUAAACCAAA
cell viability (M565): 72.2 ± 9.6%
cell viability (H460): 56.7 ± 3.6%
cell viability (HeyA8): 71.9 ± 14%
cell viability (3LL): 82.3 ± 2.5%

UACCAGGACAUGUAAACCAAA
cell viability (M565): 47.5 ± 9.4%
cell viability (H460): 59.7 ± 2.3%
cell viability (HeyA8): 63.4 ± 9.5%
cell viability (3LL): 75.7 ± 3%

UAUGUAGACAUGUAAACCAAA
cell viability (M565): 74.7 ± 4.6%
cell viability (H460): 77.3 ± 9.5%
cell viability (HeyA8): 97.2 ± 8.4%
cell viability (3LL): 112 ± 18%

UAUCAAAACAUGUAAACCAAA
cell viability (M565): 76 ± 10%
cell viability (H460): 60.2 ± 4.5%
cell viability (HeyA8): 104 ± 0.99%
cell viability (3LL): 113 ± 14%

UGAAUUCACAUGUAAACCAAA
cell viability (M565): 11.9 ± 1.8%
cell viability (H460): 50.7 ± 1.5%
cell viability (HeyA8): 40 ± 3.4%
cell viability (3LL): 62.2 ± 16%

UACAGGCACAUGUAAACCAAA
cell viability (M565): 15.2 ± 5.2%
cell viability (H460): 14.8 ± 0.78%
cell viability (HeyA8): 8.28 ± 0.66%
cell viability (3LL): 23.1 ± 5.7%
